Data published in PubChem BioAssay AID624418 (National Center for Advancing Translational Sciences (NCATS), 2012).
About 530 (0.13%) of roughly 410,000 compounds were called active. The inconclusive results got no clear call from the source; some entries with a clear call stand among them for comparison. Calls come from the whole dose curve; as a rule, active = well fitted inhibition curve with a large enough effect; inconclusive = small, poorly fitted or top-dose-only effect, or another doubt; inactive = no such curve, though single readings can be large or run the other way. A potency beside an inconclusive call is a rough fit, not a confirmed value.

Experiment: qHTS of GLP-1 Receptor Inverse Agonists: Cytotox Screen
Details: HEK293 cAMP-luciferase reporter cells, luminescence, 24 h; activity change, negative = inhibition: at 38.3 µM (top of the series)
How it was run: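 Cells in DMEM/10% Nu serum/1% pen-strep, 1536-well format. Pre-incubated 12 h, dosed with 23 nL compound, incubated a further 24 h. Luciferase detection, 12 min at room temp, luminescence.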
% is set by controls: 0 for no effect and ±100 for the full control effect; potency is the fitted concentration of half-maximal effect.

SMILES	Potency	activity change, negative = inhibition
CC1=NN(c2ccccc2)C(=O)C1C(=O)c1ccc([N+](=O)[O-])cc1 (stereo unspecified)	inconclusive: 0.501 µM [inhibitor, full curve, poor fit]	
CNC(=S)N/N=C/C1=CCC2CC1C2(C)C (stereo unspecified)	inconclusive: 8.91 µM [inhibitor, partial curve, poor fit]	
Cc1cc(N2CCN(Cc3nc(-c4ccc(F)cc4)oc3C)CC2)cc(C)n1		inactive: -25.5%
COc1ccccc1OCC(=O)OC/C(O)=C(\C#N)c1nc2ccccc2[nH]1	inconclusive: 5.62 µM [inhibitor, partial curve, poor fit]	
Cc1nc(-c2ccc(Cl)cc2)sc1C1(C)CC(c2ccc(Br)cc2)=NO1 (stereo unspecified)	inconclusive: 5.62 µM [inhibitor, full curve, poor fit]	
COc1cc(/C=N/N(c2ccccc2)c2ccccc2)ccc1O	inconclusive: 14.1 µM [inhibitor, single point]	
Cc1c(C(=O)N(Cc2ccc(N(C)C)cc2)CC2CCCO2)oc2ccccc12 (stereo unspecified)	inactive	
C/C(C/C(C)=C1/SC(=S)NC1=O)=C1\SC(=S)NC1=O		inactive: -4.18%
CSC(=S)NN=C(C)c1cccc(C)n1	inconclusive: 0.355 µM [inhibitor, full curve, poor fit]	
CN(C)c1ccc(CN(Cc2ccco2)C(=O)COc2ccc(F)cc2)cc1		inactive: -0.186%
COC(=O)CCS(=O)(=O)c1nc(-c2ccccc2)cc(C(F)(F)F)n1	inconclusive: 12.6 µM [inhibitor, partial curve, poor fit]	
C/C(=N\NC(=O)c1cccc2ccccc12)c1ccccn1	inconclusive: 2.51 µM [inhibitor, full curve, poor fit]	
O=C(c1ccc(-c2nc3ccccc3s2)s1)N1CCOCC1		inactive: 0.642%
CCOc1ccccc1Nc1ccnc2cc(Cl)ccc12	inconclusive: 11.2 µM [inhibitor, single point]	
O=C1NC(c2ccccc2)=C(c2nc3ccccc3s2)C(c2ccc(F)cc2)N1 (stereo unspecified)	inconclusive: 15.8 µM [inhibitor, partial curve, poor fit]	
CCOc1ccc(N=NC2C(=O)N(C(N)=S)N=C2C)cc1 (stereo unspecified)	inconclusive: 0.501 µM [inhibitor, full curve, poor fit]	
Cc1nn(C)c(C)c1/C=C1/SC(=S)NC1=O	inconclusive: 11.2 µM [inhibitor, single point]	
O=C(O)c1ccc(NC2=C/C(=N/S(=O)(=O)c3cccs3)c3ccccc3C2=O)cc1	inconclusive: 28.2 µM [inhibitor, single point]	
CC1=NN(C(N)=S)C(=O)C1N=Nc1ccc([N+](=O)[O-])cc1 (stereo unspecified)	inconclusive: 1 µM [inhibitor, full curve, poor fit]	
CC(=O)NCC1(c2ccccc2)CCN(CCCC(=O)c2ccc(F)cc2)CC1		inactive: -17%
N#CCc1ccc(OCCCN2CCC(C(O)(c3ccccc3)c3ccccc3)CC2)cc1	inconclusive: 28.2 µM [inhibitor, single point]	
COc1ccc(C(=O)NC(=S)NCc2cccnc2)cc1OC		inactive: 17.6%
CCCN1CCN(C(=O)C2CCN(S(=O)(=O)c3c(C)noc3/C=C/c3ccc(C)cc3)CC2)CC1	inconclusive: 10 µM [inhibitor, partial curve, poor fit]	
Cn1cc(-c2cc3n(n2)CCC(=O)N3CCCC(=O)NCc2ccc(F)cc2)c2ccccc21	inconclusive: 7.94 µM [inhibitor, partial curve, poor fit]	

SMILES	Potency	activity change, negative = inhibition
CC(=O)c1sc(NC(=O)C2CCN(C(=O)c3ccc(F)cc3)CC2)nc1-c1ccccc1		inactive: -27.9%
CCCC[n+]1c(-c2ccc(Cl)cc2Cl)csc1Nc1ccccc1		inactive: 5.84%
CCc1ccc(S(=O)(=O)N/N=C\c2ccc([N+](=O)[O-])o2)cc1	inconclusive: 28.2 µM [inhibitor, single point]	
Cc1cc(N/N=C/c2ccc(O)cc2)c2cccc(C)c2n1	inconclusive: 28.2 µM [inhibitor, single point]	
CC(=O)CSc1cc(-c2ccccc2)nc2ncnn12	inconclusive: 28.2 µM [inhibitor, single point]	
CCC1=C(OC(=O)N(CC)CC)N2C(=O)OC(=NCC(=O)OC)[C@]2(C)[C@H]2C1=CC[C@H]1C(=O)NC(=O)[C@H]12	inconclusive: 28.2 µM [inhibitor, single point]	
Cc1ccccc1C(=O)Nc1cccc(OCc2cc(=O)n3c4c(sc3n2)CCCC4)c1		inactive: 0.807%
CCOC(=O)c1c(-c2ccccc2)c2cc(OC)ccc2n1CCCN(C)C		inactive: 12.5%
CCCCCc1c(-c2ccc(Br)cc2)ncn1CCc1ccccc1OC	inconclusive: 28.2 µM [inhibitor, single point]	
CN(C)c1ccc(C(=S)N2CCN(c3ccc([N+](=O)[O-])cc3)CC2)cc1	inconclusive: 12.6 µM [inhibitor, single point]	
COc1ccccc1C(NC(=O)C1CCN(CCOc2ccc3ccccc3c2)CC1)c1ccccn1 (stereo unspecified)	inconclusive: 28.2 µM [inhibitor, single point]	
O=C(O)c1ccccc1Nc1ccc2nonc2c1[N+](=O)[O-]	inconclusive: 10 µM [inhibitor, partial curve]	
COc1ccc(-c2c(C)nc3c(-c4ccsc4)cnn3c2N)cc1		inactive: 5.38%
CCCc1cc(=O)oc2c3c(c4c(c12)OC(C)(C)C=C4)OC(C)C(C)C3O (stereo unspecified)		inactive: -3.15%
CC(C)CC1NC(=O)N(CC(=O)N2c3ccccc3NC(=O)C2(C)C)C1=O (stereo unspecified)		inactive: -10.6%
COc1ccc(OC)c(NC2=NC3(CCCC3)N=C(N)N2)c1	inconclusive: 28.2 µM [inhibitor, single point]	
CCCCCCSc1cccc(-c2nc3ccc(Cl)cn3c2NCCCC)c1	inactive	
Cc1cccc(/C(N)=N/OC(=O)c2cccs2)c1	inconclusive: 10 µM [inhibitor, partial curve, poor fit]	
CC(C)(C)c1ccc(OCCCCCCN2CCNCC2)cc1	inconclusive: 28.2 µM [inhibitor, single point]	
O=C(ONC1=NCCCCC1)c1cccc([N+](=O)[O-])c1	active: 11.2 µM	
Cc1ccc(C)c(-c2csc(N)c2C(=O)OC(C)C)c1	inconclusive: 31.6 µM [inhibitor, single point]	
O=C(NCCCN1CCOCC1)c1ccc(Sc2cccc(Cl)c2)c([N+](=O)[O-])c1	inconclusive: 12.6 µM [inhibitor, single point]	
O=C(NCC(=O)N1CCN(S(=O)(=O)c2ccccc2)CC1)c1ccc2ccccc2c1	inconclusive: 5.01 µM [inhibitor, partial curve, poor fit]	
COc1ccc(NC(=O)c2coc(=O)c3ccccc23)cc1OC		inactive: 29.6%

SMILES	Potency	activity change, negative = inhibition
CN(C(=O)c1ccc(NC(=O)Cc2ccc([N+](=O)[O-])cc2)cc1)C1CC1	inconclusive: 28.2 µM [inhibitor, single point]	
COc1ccc(-c2cc(C(=O)OCC(=O)NC3CC3)c3ccccc3n2)cc1		inactive: -2.87%
Clc1cccc(-n2ncc3c(NCCc4ccccc4)ncnc32)c1		inactive: -12.3%
O=C1N/C(=N\S(=O)(=O)c2ccccc2)S/C1=C\c1cc([N+](=O)[O-])ccc1O		inactive: 28.3%
O=C(Cn1sc2ccccc2c1=O)NC12CC3CC(CC(C3)C1)C2	inconclusive: 28.2 µM [inhibitor, single point]	
CCCCNC(=O)C(CC)Sc1nnc(-c2ccc(F)cc2)c(-c2ccc(F)cc2)n1 (stereo unspecified)		inactive: 2.64%
Cc1ccc(-c2ccc(/C=C(\C#N)C(N)=S)n2C)cc1		inactive: 3.76%
Cc1ccccc1NC(=S)NC(=O)c1cc(-c2ccccc2)nc2ccccc12		inactive: 0.212%
COc1ccc(NC(=S)c2ccc3ccccc3n2)cc1	inconclusive: 3.16 µM [inhibitor, full curve, poor fit]	
Cc1ccc(-c2nn(-c3ccccc3)cc2C=O)o1	inconclusive: 5.01 µM [inhibitor, partial curve, poor fit]	
S=C1SCN(Cc2cccs2)CN1Cc1cccs1	inconclusive: 28.2 µM [inhibitor, single point]	
Cn1c(-c2ccc(Cl)cc2)cnc1NCc1cc2c(cc1[N+](=O)[O-])OCO2	inconclusive: 31.6 µM [inhibitor, single point]	
O=C(NC(=S)NCc1ccccc1)c1cccs1	inconclusive: 12.6 µM [inhibitor, partial curve]	
Cc1cc2c(=O)n(Cc3ccco3)c(SCC(=O)N3CCCc4ccccc43)nc2s1	inconclusive: 10 µM [inhibitor, single point]	
Cc1cccc(C)c1OCC(=O)N/N=C/c1ccncc1	inconclusive: 11.2 µM [inhibitor, single point]	
O=C(NCCO)OC1CC2CC1[C@H]1CCCCN1C2=O (stereo partly specified)		inactive: -4.32%
Cc1ccc(C(=O)Nc2sc(Cc3ccc4c(c3)OCO4)c(C)c2C(N)=O)cc1	inconclusive: 10 µM [inhibitor, single point]	
CCc1cc2c(=O)[nH]c(-c3ccccn3)nc2s1	inconclusive: 1 µM [inhibitor, full curve, poor fit]	
CC1CCN(S(=O)(=O)c2ccc3c(c2)oc(=O)n3C)CC1		inactive: 0.4%
Fc1ccc(NCc2nnc(SCc3nnc(-c4ccccc4)o3)n2CC2CCCO2)cc1 (stereo unspecified)	inconclusive: 28.2 µM [inhibitor, partial curve, poor fit]	
O=C(c1ccccc1)c1cccc(NC(=O)c2ccco2)c1		inactive: -2.52%
Cn1c(N)c(C(=O)CCl)c(=O)n(Cc2ccccc2)c1=O		inactive: 7%
Cc1nc([N+](=O)[O-])c(NCCCO)n1Cc1ccccc1	inconclusive: 28.2 µM [inhibitor, single point]	
